Experimental findings from the BET-seq Pho4 binding data (Le et al. 2018) are described below.

This is one part of the list. The energies were worked out here from pooled read counts, against the library average; single values are noisy.

For this test, the target named is T1, Pho4 (S. cerevisiae) (UniProt P07270).
T1 sequence: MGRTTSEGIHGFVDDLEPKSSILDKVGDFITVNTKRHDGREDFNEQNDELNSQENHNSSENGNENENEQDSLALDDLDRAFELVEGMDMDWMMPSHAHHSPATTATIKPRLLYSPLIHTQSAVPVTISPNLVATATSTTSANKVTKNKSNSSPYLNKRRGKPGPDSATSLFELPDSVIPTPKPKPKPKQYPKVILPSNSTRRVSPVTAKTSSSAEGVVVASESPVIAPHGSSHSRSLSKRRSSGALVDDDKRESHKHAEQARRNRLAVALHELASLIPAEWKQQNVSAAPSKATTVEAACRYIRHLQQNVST
Briefly: relative binding free energy (BET-seq); higher = weaker binding. Particulars: reference: library average.
As for CCATTCACGTGGGTTT, the “relative binding free energy” value stood at 0.17 kcal/mol. Then TAATTCACGTGTAGTA, with 0.24 kcal/mol. In the case of GATTACACGTGGTAGC, the “relative binding free energy” value stood at 0.14 kcal/mol. Turning to TTAGTCACGTGCGGCT, the “relative binding free energy” value amounted to 0.09 kcal/mol. In the case of TTGATCACGTGGGCTC, the “relative binding free energy” value came to 0.16 kcal/mol. Regarding TGAAGCACGTGATTGT, the “relative binding free energy” value came out at 0.22 kcal/mol.

For the sequence ATGGTCACGTGATTTT, the “relative binding free energy” value was 0.33 kcal/mol. As for AAGGGCACGTGGTTAG, the “relative binding free energy” value is -0.09 kcal/mol. Then GGGGGCACGTGCAGTG, with -0.17 kcal/mol; and TGAGGCACGTGGAATG, with -0.06 kcal/mol; and TGTTTCACGTGGGCGG, with 0.2 kcal/mol. In the case of TTAGTCACGTGCGCGG it was -0.12 kcal/mol; in that of AAGGTCACGTGCGTAG, 0.03 kcal/mol. With TTGGACACGTGGTTAT, the “relative binding free energy” value was 0.09 kcal/mol. Take GATTGCACGTGTTATT: the “relative binding free energy” value was 0.02 kcal/mol. In the case of AGAGCCACGTGTGTTG it was 0.05 kcal/mol; in that of CTAATCACGTGGTGGC, 0.15 kcal/mol. In the case of TTGTTCACGTGTCGTA it was 0.28 kcal/mol. In the case of GACAACACGTGGGGGT it was -0.04 kcal/mol; in that of GGAAGCACGTGTCGTT, 0 kcal/mol; in that of TCAATCACGTGGAGTG, 0.26 kcal/mol. On to CGATGCACGTGGGATG, for which the “relative binding free energy” value is -0.1 kcal/mol. GGGGACACGTGGGCTT: the “relative binding free energy” value is -0.04 kcal/mol. Take CGATGCACGTGGTGTT: the “relative binding free energy” value is -0.14 kcal/mol. As for TGAAGCACGTGTTAGT, the “relative binding free energy” value is -0.1 kcal/mol. With GGGTGCACGTGTGGGT, the “relative binding free energy” value turned out to be 0.06 kcal/mol. Then ATCGGCACGTGATAGG, with 0.01 kcal/mol. Regarding ATGAACACGTGTTTAT, the “relative binding free energy” value is -0.01 kcal/mol.

Take TGGGGCACGTGGGACA: the “relative binding free energy” value was -0.19 kcal/mol.

As to CAGTACACGTGAAGTG, the “relative binding free energy” value is 0.38 kcal/mol. Turning to GGTGGCACGTGTAGAG, the “relative binding free energy” value was -0.07 kcal/mol. In the case of GAGAGCACGTGGGATG it was -0.16 kcal/mol; in that of GGTTTCACGTGTGTGG, 0.36 kcal/mol.

As for CTTATCACGTGGTTTT, the “relative binding free energy” value amounted to 0.15 kcal/mol. In the case of AGAGGCACGTGGGGTG it was -0.25 kcal/mol; in that of CGGGGCACGTGACGAG, 0.06 kcal/mol. For the sequence GTAAGCACGTGTTATA, the “relative binding free energy” value is -0.06 kcal/mol.

In the case of CTTTCCACGTGATGGT, the “relative binding free energy” value is 0.36 kcal/mol. In the case of TATATCACGTGGCTTT it was 0.12 kcal/mol. In the case of GTAGCCACGTGATGGG, the “relative binding free energy” value came to 0.15 kcal/mol.

In the case of CGTGTCACGTGTGGAT, the “relative binding free energy” value is -0.02 kcal/mol.

For AGATTCACGTGGGGTA, the “relative binding free energy” value was 0.23 kcal/mol. In the case of ATTTACACGTGTCTGT, the “relative binding free energy” value was found to be 0.02 kcal/mol. For GTTCTCACGTGGTGGG, the “relative binding free energy” value was 0.25 kcal/mol.

Turning to GATGGCACGTGCGGGC, the “relative binding free energy” value was -0.08 kcal/mol. In the case of TGTGCCACGTGTTGTG it was -0.1 kcal/mol; in that of GGTGCCACGTGTAGGC, 0 kcal/mol; in that of TAGTTCACGTGAAAGT, 0.38 kcal/mol. Take TAAGCCACGTGGAGTT: the “relative binding free energy” value is -0.05 kcal/mol.

TCGGGCACGTGCGTAT: the “relative binding free energy” value was -0.09 kcal/mol. With AGGAGCACGTGACGGT, the “relative binding free energy” value was 0.01 kcal/mol. As to GAGTGCACGTGTTGAG, the “relative binding free energy” value came to 0.13 kcal/mol. With TTACTCACGTGGGCTT, the “relative binding free energy” value turned out to be 0.21 kcal/mol. As for GACGGCACGTGGGTCG, the “relative binding free energy” value is -0.19 kcal/mol.

Turning to TTGTACACGTGGTTAG, the “relative binding free energy” value came out at 0.02 kcal/mol. Then GGGTGCACGTGCCGGG, with -0.03 kcal/mol. Then CTGCGCACGTGTTAGG, with -0.17 kcal/mol; and GGCAGCACGTGGAAGT, with 0.14 kcal/mol; and TAGCGCACGTGAGGAG, with 0.03 kcal/mol. In the case of GGAGGCACGTGTTAAG it was -0.08 kcal/mol; in that of TTAGTCACGTGCATGT, 0.13 kcal/mol. As for GATTGCACGTGTAATT, the “relative binding free energy” value was 0.22 kcal/mol. Then TAATTCACGTGTGTCA, with 0.17 kcal/mol; and GGGTTCACGTGTGGTA, with 0.33 kcal/mol. Take TGGATCACGTGAATAT: the “relative binding free energy” value turned out to be 0.4 kcal/mol. Take AGAGTCACGTGGTCAG: the “relative binding free energy” value was -0.03 kcal/mol. On to ATGATCACGTGTCGGT, for which the “relative binding free energy” value is 0.2 kcal/mol. For the sequence TATTTCACGTGGTCAT, the “relative binding free energy” value turned out to be 0.24 kcal/mol. On to TAGTTCACGTGTATTT, for which the “relative binding free energy” value was determined as 0.17 kcal/mol. In the case of GTGTACACGTGAGGCG it was 0.4 kcal/mol; in that of TGTGGCACGTGACATT, -0.08 kcal/mol; in that of GGATACACGTGCGAGG, 0.14 kcal/mol. In the case of GATTGCACGTGGGAAA it was 0.15 kcal/mol; in that of CGGGTCACGTGAGTTA, 0.22 kcal/mol. In the case of ATCCGCACGTGTGTTT it was -0.05 kcal/mol; in that of ATAGTCACGTGGGCTA, -0.06 kcal/mol; in that of AATGTCACGTGTTAGA, 0.17 kcal/mol. Regarding CTGGTCACGTGTAATA, the “relative binding free energy” value came out at 0.19 kcal/mol. Then GGCGTCACGTGAATAG, with 0.42 kcal/mol; and ATCGTCACGTGGGGGT, with -0.06 kcal/mol.

Turning to TAGTGCACGTGGGGCG, the “relative binding free energy” value was -0.19 kcal/mol. In the case of TTGGACACGTGGGGCC it was -0.07 kcal/mol; in that of TTTCACACGTGAATGT, 0.31 kcal/mol; in that of GAGGGCACGTGAAGCT, 0.15 kcal/mol.

Regarding AGAGGCACGTGCTAGG, the “relative binding free energy” value was -0.13 kcal/mol.

For AGGTGCACGTGGCAGT, the “relative binding free energy” value is -0.3 kcal/mol. Then TTTGGCACGTGTCAGA, with -0.15 kcal/mol; and TATTCCACGTGTTTTG, with -0.11 kcal/mol; and GTGGTCACGTGGCATT, with -0.01 kcal/mol. In the case of TGCAGCACGTGTGCGG it was -0.22 kcal/mol; in that of GTGGGCACGTGTTTTT, 0.05 kcal/mol; in that of TTGACCACGTGATGTG, 0 kcal/mol.

With ATTGTCACGTGTTTGC, the “relative binding free energy” value worked out at 0.08 kcal/mol. Then GTGAGCACGTGGGACT, with -0.16 kcal/mol; and GATTTCACGTGGTGGT, with 0.33 kcal/mol.

As to ACGGTCACGTGTTGCG, the “relative binding free energy” value is 0.17 kcal/mol.

With CGGTTCACGTGTGGCT, the “relative binding free energy” value was 0.23 kcal/mol.

Take AGGTCCACGTGGGCTG: the “relative binding free energy” value was -0.2 kcal/mol. With ATGGGCACGTGTCATG, the “relative binding free energy” value was -0.18 kcal/mol. In the case of TGCGGCACGTGGGTAT, the “relative binding free energy” value is -0.2 kcal/mol. On to CGTTGCACGTGCGGGA, for which the “relative binding free energy” value is -0.06 kcal/mol. In the case of GGTCCCACGTGAGGGG it was 0.22 kcal/mol; in that of GGTGCCACGTGGGTCT, -0.18 kcal/mol; in that of GTCAACACGTGGCGGG, -0.05 kcal/mol.

As for TAACACACGTGGGTTG, the “relative binding free energy” value is -0.11 kcal/mol. Then TGTGTCACGTGCTGTC, with 0.09 kcal/mol; and TATGCCACGTGGGGTT, with -0.19 kcal/mol. In the case of TAGTTCACGTGGTATC it was 0.16 kcal/mol; in that of AGGTACACGTGTTTGT, 0.01 kcal/mol. Consider AGCGGCACGTGGGGGC, for which the “relative binding free energy” value is -0.27 kcal/mol.

For the sequence ACAGGCACGTGGAGTA, the “relative binding free energy” value is -0.08 kcal/mol.

As for TGGCGCACGTGCCGGG, the “relative binding free energy” value was -0.2 kcal/mol. In the case of AGGCACACGTGAGGTA it was 0.31 kcal/mol.

On to ACGTGCACGTGTTCGG, for which the “relative binding free energy” value was -0.15 kcal/mol. Regarding GTGTACACGTGATGGC, the “relative binding free energy” value is 0.27 kcal/mol.
